# Test results published in PubChem BioAssay AID1508642 (National Center for Advancing Translational Sciences (NCATS), 2021).
# The whole screen tested about 43,000 compounds, of which about 200 (0.47%) were called active. Roughly 12% stayed inconclusive and do not appear here. Calls follow the shape of the dose curve; as a rule, active = well fitted cell-killing curve with a large enough effect; inconclusive = small, poorly fitted or top-dose-only effect, or effect the other way; inactive = flat fitted curve, though single readings scatter. The list shows a part of the results.
# Test: Cell viability qHTS assay in S16 Pmp22-F2sN cells; also: nearly all actives have a fitted effect of over 65% in size
# Details: S16 Pmp22-F2sN Schwann cells viability, CellTiter-Glo, 24 h; series mostly up to 57.5 µM; activity change, negative = cytotoxicity: at the top concentration
# How it was run: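 S16 Pmp22-F2sN Schwann cells (500-1,000/well) in phenol-red-free DMEM with 10% FBS received 23 nL compound by pin tool for 24 h at 37 °C. Viability was then read as CellTiter-Glo luminescence after 15 min at room temperature.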
# % is scaled to controls: 0 for no effect and ±100 for the full control effect.
row,Compound,"activity change, negative = cytotoxicity"
1,CCCCNC(=O)CCCN1C(=O)c2ccccc2Sc2ncccc21,inactive: 0.401%
2,Oc1c(C(c2ccc(F)cc2)N2CCN(Cc3ccccc3)CC2)sc2nc(-c3ccco3)nn12 (stereo not given),inactive: 8.01%
3,CN1C(=O)C2(c3ccccc31)N(c1cccc(C(F)(F)F)c1)C(=O)CS2(=O)=O (stereo not given),inactive: -1.11%
4,COc1cc(CN(C(=O)c2ccccc2F)C2CCS(=O)(=O)C2)cc(OC)c1OC (stereo not given),inactive: 6.95%
5,Cc1cccc(N2CCN(C(=O)Cn3c(-c4cccs4)cc4ccccc43)CC2)c1C,inactive: 1.09%
6,Cc1ccc2c(CC(=O)Nc3ccc(S(=O)(=O)N4CCCCC4)cc3)coc2c1C,inactive: -4.08%
7,CCCS(=O)(=O)N1CC(=O)N(c2ccc(C)c(Cl)c2)C(C)(C(=O)NC2CCCCCC2)C1 (stereo not given),inactive: -11.6%
8,Cc1ccc(Cl)cc1-n1nnc(-c2nc(-c3ccc4c(c3)OCO4)no2)c1C,inactive: -15.1%
9,COc1ccc(Nc2nn3c(=O)c4cc5c(cc4nc3s2)OCO5)c(OC)c1,inactive: 28.8%
10,CCc1ccc(C2c3c(-c4ccccc4O)n[nH]c3C(=O)N2Cc2cccnc2)cc1 (stereo not given),inactive: -29.4%
11,CCC(=O)N1c2ccc(S(=O)(=O)CCC(=O)Nc3ccc(OC)cc3OC)cc2CC1C (stereo not given),inactive: 5.98%
12,CC(=O)N1CCC(N(CCCOC(C)C)C(=O)Nc2ccc(C)c(C)c2)CC1,inactive: 2.11%
13,Cc1ccc(NC(=O)c2oc3ccc(S(=O)(=O)N4CCC5(CC4)OCCO5)cc3c2C)cc1Cl,inactive: 7.18%
14,CCc1cccc(C)c1NC(=O)CSc1nc2ccccc2nc1Cc1ccccc1,inactive: 0.253%
15,COc1ccc(-c2nc3cc(NC(=O)COc4ccccc4C)ccc3o2)cc1,inactive: -2.66%
16,COc1ccc(CCNC(=O)CN(c2ccccc2)S(=O)(=O)N(C)C)cc1OC,inactive: 8.17%
17,CCOC(=O)C(C)NC(=O)c1c2c(nc3ccccc13)C(=O)N(C1CCCCC1)C2 (stereo not given),inactive: 4.48%
18,COc1cc(C(c2c(C)[nH][nH]c2=O)c2c(C)[nH][nH]c2=O)ccc1OC(=O)c1ccccc1OC,inactive: -1.51%
19,COC(=O)CC1Oc2ccccc2-n2cc(-c3ccc(F)cc3)nc21 (stereo not given),inactive: 20.4%
20,O=C(CN1C(=O)CCSc2ccc(S(=O)(=O)N3CCCC3)cc21)Nc1cccc(F)c1,inactive: -2.93%
21,CCc1ccc(-c2cn3nc(CC)sc3n2)cc1,inactive: 5.44%
22,COc1cc(OC)c(NC(=O)Cn2ncn3c(cc4cc(C)ccc43)c2=O)cc1Cl,inactive: 6.36%
23,Cc1cccc(NC(=O)CSC2=Nc3ccccc3C3=NC(CCC(=O)NCc4ccco4)C(=O)N23)c1 (stereo not given),inactive: -2.93%
24,COc1ccccc1CNC(=O)Cn1cc2c(n1)-c1c(oc(C(=O)N3CCOCC3)c1C)CC2,inactive: -13%

row,Compound,"activity change, negative = cytotoxicity"
1,COC(=O)c1sccc1S(=O)(=O)N(CC(=O)Nc1cccc(C)c1C)c1ccc(C)c(C)c1,inactive: -13.7%
2,COc1ccc(Cn2c(CO)cnc2SCc2ccc(C)cc2)cc1,inactive: 4.61%
3,CC(C)(C)OC(=O)N1CCC(c2c(C(=O)N3CCN(Cc4ccccc4)CC3)cnn2-c2cccc(Cl)c2)CC1,inactive: 6.24%
4,CC(C)CN(CCNC(=O)CCN1N=C(c2ccccc2)CCC1=O)CC(C)C,inactive: 7.77%
5,COc1ccc2c(c1)c1c(c(=O)n(CCc3ccccc3)c(=O)n1Cc1cccc(F)c1)n2C,inactive: 1.65%
6,Cc1ccc(-c2onc(C)c2C)cc1S(=O)(=O)Nc1ccccn1,inactive: 2.5%
7,CCc1ccccc1NC(=O)c1ccc2c(c1)CCCN2S(C)(=O)=O,inactive: -3.77%
8,CCN(CC)C(=O)CSc1nnc2ccc3ccccc3n12,inactive: 8.85%
9,Cc1ccc(-c2c(CN3CCN(c4cc(C)ccc4C)CC3)csc2C)cc1,inactive: 0.653%
10,CCc1ccccc1NC(=O)CN1C(=O)CCn2nc(-c3cccn3C)cc21,inactive: -0.036%
11,CCc1ccc(NC(=O)CC(c2cc(OC)c(OC)c(OC)c2)N2Cc3ccccc3C2=O)cc1 (stereo not given),inactive: -1.32%
12,CCOC(=O)C1CCN(c2nc3c(S(=O)(=O)c4ccc(Br)cc4)nnn3c3ccsc23)CC1,inactive: 16.5%
13,FC(F)(F)c1cccc(-n2cc(-c3ccccc3)c3c(N4CCCCC4)ncnc32)c1,inactive: 19.5%
14,COc1ccc(CCNC(=O)Cn2cc(C(=O)c3ccc(Cl)cc3)c(=O)c3ccc(C)nc32)cc1OC,inactive: -10.3%
15,CCCN(CCC)CCNC(=O)Cn1cnc2sc(C)c(S(=O)(=O)N3CCC(C)CC3)c2c1=O,inactive: 3.73%
16,Cc1ccc(N2CC(C(=O)NCCS(=O)(=O)N3CCN(c4ccccc4)CC3)CC2=O)cc1 (stereo not given),inactive: 5.3%
17,COCCN1C(=O)c2oc3cc(C)cc(C)c3c(=O)c2C1c1cccc(O)c1 (stereo not given),inactive: 4.45%
18,COc1ccc(CNC(=O)c2cc3c(-c4ccc(Cl)cc4)nn(C)c3s2)cc1,inactive: 11.2%
19,COc1ccc(S(=O)(=O)N(CCc2ccccc2)CC(=O)NCc2ccccc2)cc1,inactive: 6.21%
20,CCOC(=O)c1cccc(NC(=O)Cn2nc3c(cc2=O)CCCC3)c1,inactive: 6.43%
21,COc1ccccc1N1CCN(C(=O)c2cc3c(=O)n(C)c4ccccc4c3s2)CC1,inactive: 1.32%
22,COc1ccc(-c2nc(SCC(=O)NC3CCCC3)c(-c3ccc(OC)cc3)[nH]2)cc1,inactive: 6.1%
23,COc1ccc(CNC(=O)Cn2nc(C)n3cccc3c2=O)cc1,inactive: -1.92%
24,CC1CCN(C(=O)c2ccc3c(c2)N(Cc2ccccc2F)C(=O)c2ccccc2S3(=O)=O)CC1,inactive: 12%

row,Compound,"activity change, negative = cytotoxicity"
1,Cc1ccc(NC(=O)C(=O)NCC(c2cccnc2)N2CCOCC2)cc1 (stereo not given),inactive: 9.39%
2,Cc1c(Cl)cccc1-n1ncc(C(=O)N2CCN(C)CC2)c1C1CCN(C(=O)OC(C)(C)C)CC1,inactive: 3.11%
3,CC(C)Cn1c(=O)c2ccccc2n2c(CCC(=O)N3CCN(c4cccc(Cl)c4)CC3)nnc12,inactive: -7.7%
4,CC(=O)c1ccc(N2CCN(c3ncnc4c3c(-c3ccccc3)cn4-c3ccc(C)c(Cl)c3)CC2)cc1,inactive: 0.445%
5,COCCCN(Cc1ccco1)C(=O)c1cc2c(s1)-c1ccccc1OC2,inactive: -0.876%
6,COc1ccccc1-c1noc(-c2ccc(N3CCOCC3)c([N+](=O)[O-])c2)n1,inactive: -9.25%
7,Cc1cccc(C)c1NC(=O)CN1C(=O)CCSc2ccc(S(=O)(=O)N3CCCC3)cc21,inactive: 5.26%
8,COc1ccc(N(CC(=O)Nc2ccc(C)c(C)c2)S(=O)(=O)c2ccc(C)cc2)cc1OC,inactive: -3.36%
9,Cc1ccc(C)c(N2C(=O)N(Cc3c(F)cccc3Cl)c3ccccc3S2(=O)=O)c1,inactive: -12.4%
10,COC(=O)c1cc(NC(=O)Nc2ccc3snnc3c2)cc(C(=O)OC)c1,inactive: 0.268%
11,O=C(COc1ccccc1)Nc1sc2c(c1C(=O)Nc1ccccc1Cl)CCCCC2,inactive: -9.46%
12,CCN(Cc1nc(-c2cccc(C)c2)no1)S(=O)(=O)c1ccc(C)cc1,inactive: -15.3%
13,CC(=O)OCc1cc(=O)n2nc(C3CCCCC3)sc2n1,inactive: 0.571%
14,Cc1ccccc1-c1noc(-c2ccc(N3CCN(c4ccccc4)CC3)c([N+](=O)[O-])c2)n1,inactive: 12%
15,COc1ccc(N2CC(NC(=O)COc3ccccc3F)CC2=O)cc1OC (stereo not given),inactive: -8.06%
16,CC(C)CCNC(=O)CN1C(=O)CCn2nc(-c3cn(C)c4ccccc34)cc21,inactive: 9.57%
17,COc1ccc(C)c2sc(NC(=O)c3ccc(S(=O)(=O)N4CCCCC4)cc3)nc12,inactive: 16.4%
18,Cc1cc(C)cc(Nc2ncnc3c2nc2n3CCCC2)c1,inactive: 6.74%
19,CCOc1ccc(CCNC(=O)c2ccc(-c3nc(CSc4ccc(C)cc4)c(C)o3)cc2)cc1,inactive: 0.111%
20,Cc1nc(S(=O)(=O)N2CCN(c3ccc(Cl)cc3)CC2)cn1C,inactive: 2.19%
21,Cc1nnc(SCc2cc(=O)c3ccccc3[nH]2)s1,inactive: -5.74%
22,CCOc1ccc(S(=O)(=O)NCCc2csc(-c3ccc(Cl)cc3)n2)cc1,inactive: -5.37%
23,CCCCC1CCC(C(=O)N2CC(=O)Nc3ccc(F)cc3C2c2ccc(F)cc2)CC1 (stereo not given),inactive: -25.4%
24,COc1ccc(C2CC(=O)Nc3c2c(=O)nc2c(C)cccn32)cc1OC (stereo not given),inactive: -1.27%

row,Compound,"activity change, negative = cytotoxicity"
1,COc1ccc(OCc2ccc(-c3nc(C#N)c(N4CCN(C)CC4)o3)o2)cc1,inactive: 5.29%
2,CCC1CN(C(=O)NCc2cccc(OC)c2)c2cc(Cl)ccc2O1 (stereo not given),inactive: -13.4%
3,Cc1ccccc1C(=O)c1cccn1CC(=O)NCc1ccc(Cl)cc1,inactive: 3.75%
4,COc1ccccc1CNC(=O)Cc1c(C)c2c(cc(C)c3c(C)c(C)oc32)oc1=O,inactive: 14.7%
5,Cc1ccc2c(CN3CCN(Cc4ccccc4Cl)CC3)cc(=O)oc2c1,inactive: 7.54%
6,COc1ccc(CCNC(=O)CCCn2c(=O)c3cccn3c3cccnc32)cc1OC,inactive: 8.48%
7,COc1ccc(NC(=O)CSc2cn(CC(=O)N3CCCCC3)c3ccccc23)c(OC)c1,inactive: -15.4%
8,CCCC(=O)Nc1ccc2c(c1)nc(CN1CCN(C(=O)OCC)CC1)n2C(C)C,inactive: -5.68%
9,COc1ccc(NC(=O)c2ccc(CN3C(=O)CCn4nc(C)cc43)cc2)c(OC)c1,inactive: -11.9%
10,CCn1c2ccccc2c2nnc(N3CCN(c4ccc(F)cc4)CC3)nc21,inactive: 16.2%
11,CCOC(=O)c1c(NC(=O)COc2cccc(C(F)(F)F)c2)sc2c1CCC(C)C2 (stereo not given),inactive: -2.83%
12,CCOC(=O)c1cc2c(=O)n3ccccc3nc2n(CC2CCCO2)c1=NC(=O)c1ccc(C(C)(C)C)cc1 (stereo not given),inactive: -6.57%
13,Cc1nc2sc(C(=O)N(C)Cc3ccccc3)c(NC(=O)c3ccccc3)c2c(C)c1Cl,inactive: 6.14%
14,Cc1ccc(-c2cc(NC(=O)c3ccccc3Cl)on2)cc1,inactive: -0.179%
15,CCOC(=O)c1c(S(=O)(=O)N2CCCC(C(=O)Nc3ccc(OCC)cc3)C2)c(C)n(C)c1C (stereo not given),inactive: -2.1%
16,Cc1ccc(S(=O)(=O)c2cn(Cc3cccc(F)c3)c3cc(N4CCCC4)c(F)cc3c2=O)cc1,inactive: 3.59%
17,COc1ccc(C)cc1Nc1nc2c(S(=O)(=O)c3cccc(Cl)c3)nnn2c2ccsc12,inactive: 3.87%
18,CCOc1ccc(NC(=O)c2cc3sc(Cl)cc3n2CC)cc1,inactive: -28.2%
19,Cc1cc(C)n(C(C)CC(=O)NCc2ccccc2C)n1 (stereo not given),inactive: -9.02%
20,CCCCN(CCCC)c1ncnc2c1cnn2-c1cccc(C)c1,inactive: 20.8%
21,COc1ccc(Br)cc1C(=O)Nc1ccc2oc(-c3cccnc3)nc2c1,inactive: 4.39%
22,CCN1CCN(CCCNC(=O)c2ccc3nc(Cc4ccc(OC)cc4)oc3c2)CC1,inactive: 6.66%
23,CCOc1cc(CNS(=O)(=O)c2ccc3c(c2)CC(=O)N3C)cc(OCC)c1OCC,inactive: -2.87%
